Test results as given in US20230331823A1 (HENRY M JACKSON FOUNDATION FOR THE ADVANCEMENT OF MILITARY …, published 2023).

B1: ShAb01H02K (ShAb01Hole-02Knob) (bispecific antibody)
chain 1: ARVDQTPRSVTKETGESLTINCVLRDSNCALSSTHWYRKKSGSTNEERILQGRRYVETVNSGSKSFSLRINDLRVEDSGTYRCKVYWGNSWQDKFCPGLGSYEYGDGTAVTVNSREPKSCDKGLEVLFQGP[no letters for human IgG1 Fc with Y407T (EU numbers)]
chain 2: ARVDQTPQTITKETGESLTINCVLRDSNCALASTDWYRKKSGSTNEESISKGGRYVETVNSGSKSFSLRINDLTVEDSGTYRCNAWDSWETRQLKCDYDVYGGGTVVTVNSREPKSCDKGLEVLFQGP[no letters for human IgG1 Fc with T366Y (EU numbers)]
B2: BiShAb21a (ShAb02 VNAR-25aa-ShAb01 VNAR-3c-Fc) (bispecific antibody)
chain: ARVDQTPQTITKETGESLTINCVLRDSNCALASTDWYRKKSGSTNEESISKGGRYVETVNSGSKSFSLRINDLTVEDSGTYRCNAWDSWETRQLKCDYDVYGGGTVVTVNGGGGSGGGGSGGGGSGGGGSGGGGSARVDQTPRSVTKETGESLTINCVLRDSNCALSSTHWYRKKSGSTNEERILQGRRYVETVNSGSKSFSLRINDLRVEDSGTYRCKVYWGNSWQDKFCPGLGSYEYGDGTAVTVNSREPKSCDKGLEVLFQ[no letters for human IgG1 Fc and a few adjoining residues]
B3: ShAb04a (ShAb04 VNAR-3c-Fc) (Fc fusion)
chain: ARVDQTPQTITKETGESLTINCGLRDSNCALSSTYWYRKKSGSTNEESISKGGRYVETVNSGPLTFSLRINDLTVEDSGTYRCKVSCLAIPIGPHYDVYGGGTVVTVNSREPKSCDKGLEVLFQ[no letters for human IgG1 Fc and a few adjoining residues]
B4: ShAb18a (ShAb18 VNAR-3c-Fc) (Fc fusion)
chain: ARVDQTPRSVTKETGESLTINCVLREARYELGKTCWYRKRAGSTNEESISAGGRYVETVISGSKSFSLRINDLTVEDGGTYRCGVPPAGWCSKVSCDHVGAGVLEPAACGGGTVVTVNSREPKSCDKGLEVLFQ[no letters for human IgG1 Fc and a few adjoining residues]
B5: ShAb19a (ShAb19 VNAR-3c-Fc) (Fc fusion)
chain: ARVDQTPQTITKATGESLTINCVLRDASYALGRTCWYRKKSGSTNEESISLGGRYVETVNSGSKSFSLRINDLTVEDGGTYRCGAHRWWTVCGMPAPYAESGGGTVVTVNSREPKSCDKGLEVLFQ[no letters for human IgG1 Fc and a few adjoining residues]
B6: ShAb21a (ShAb21 VNAR-3c-Fc) (Fc fusion)
chain: ARVDQTPRSVTKETGESLTINCVLREARYELGRTCWYRKKSGSRNEESISEGGRYVETVNSGSKSFSLRINDLTVEDGGTYRCGVPAAGWCPERCAPDPPYAVCGGGTVVTVNSREPKSCDKGLEVLFQ[no letters for human IgG1 Fc and a few adjoining residues]
B7: ShAb22a (ShAb22 VNAR-3c-Fc) (Fc fusion)
chain: ARVDQTPQTITKETGESLTINCVLRDNNCALSSTYWYREKSGSTNLESISLGGRYVETVNSGSKSFSLRINDLTVEDSGTYRCKVWGNEGSYDCGLESAVYGGGTVVTVNSREPKSCDKGLEVLFQ[no letters for human IgG1 Fc and a few adjoining residues]
B8: ShAb23a (ShAb23 VNAR-3c-Fc) (Fc fusion)
chain: ARVDQTPQTITKETGESLTINCVLRDSNCALGSTYWYRKKSGSTNEENISKGGRYVETVRSGSKSLSLRINDLTVEDSGTYRCKVSRLSWYPESRWNCDNYDVYGDGTAVTVNSREPKSCDKGLEVLFQ[no letters for human IgG1 Fc and a few adjoining residues]
B9: ShAb24a (ShAb24 VNAR-3c-Fc) (Fc fusion)
chain: ARVDQTPQTITKETGESLTINCVLRDSNCPLSSTYWYRKKSGSTNEESIPKAGRYVETVNHGSKSFSLRINDLTVEDSGTYRCKTASNVCRSGGRTSYHYDVYGDGTAVTVNSREPKSCDKGLEVLFQ[no letters for human IgG1 Fc and a few adjoining residues]
B10: ShAb29a (ShAb29 VNAR-3c-Fc) (Fc fusion)
chain: ARVDQTPQTITKETGESLTINCVLRDSNCALSRTYWYRKKSGSTDEESISKGGRYVETVNSGSKSFSLRINDLTVEDSGTYRCNVYSWYGGDHNSWDWRSDPAMVCGDVYGGGTVVTVNSREPKSCDKGLEVLFQ[no letters for human IgG1 Fc and a few adjoining residues]
B11: ShAb05a (ShAb05 VNAR-3c-Fc) (Fc fusion)
chain: ARVDQTPQTITKETGESLTINCVVRDSNCALGSTYWYRKKSGSTNEESITKGGRSVETVNSGSKSFSLRINDLTVEDSGTYRCKVLSIGWHDPMGLRGCDVYGGGTVVTVNSREPKSCDKGLEVLFQ[no letters for human IgG1 Fc and a few adjoining residues]
B12: ShAb06a (ShAb06 VNAR-3c-Fc) (Fc fusion)
chain: ARVDQTPRSVTKETGESLTINCVLRDASYALGSTCWYRKKSGSTNEESISKGGRYVETVNSGSKSFSLRINDLTVEDGGTYRCGVGRGLGVGCDYPLCSYSYAACGDGTAVTVNSREPKSCDKGLEVLFQ[no letters for human IgG1 Fc and a few adjoining residues]
B13: ShAb07a (ShAb07 VNAR-3c-Fc) (Fc fusion)
chain: ARVDQTPQTITKETGESLTINCVLRDASYALGSTCWYRKKSGSTNWESIGKGGRYVETVNSGSKSFSLRINDLTVEDGGTYRCGVGRGAGVGCDYPLCSYSYAACGGGTVVTVNSREPKSCDKGLEVLFQ[no letters for human IgG1 Fc and a few adjoining residues]
B14: ShAb08a (ShAb08 VNAR-3c-Fc) (Fc fusion)
chain: ARVDQTPKTITKETGESLTINCVLRDSNCAASSTYWYRKKSGSNNEESISKGGRYVETVNSGSKSFSLRINDLTVEDSGTYRCNVEGYSCGLYSVEDYYGGGTVVTVNSREPKSCDKGLEVLFQ[no letters for human IgG1 Fc and a few adjoining residues]
B15: ShAb09a (ShAb09 VNAR-3c-Fc) (Fc fusion)
chain: ARVDQTPQTITKETGESLTIDCVLRDSNCALSSTHWYRKKSGSTNEERILQGRRYVETVNSGSKSFSLRINDLRVEDSGTYRCKVYWGNSWQDKFCPGLGSYEYGGGTVVTVNSREPKSCDKGLEVLFQ[no letters for human IgG1 Fc and a few adjoining residues]
B16: ShAb10a (ShAb10 VNAR-3c-Fc) (Fc fusion)
chain: ARVDQTPQTITKETGESLTINCVLRDSNCALSSTYWYRKKSGSTNEESISKGGRYVETVNSGSKSFSLRINDLTVEDSGTYRCHVRLRYDCESVIDFRVYGGGTVVTVNSREPKSCDKGLEVLFQ[no letters for human IgG1 Fc and a few adjoining residues]
B17: ShAb11a (ShAb11 VNAR-3c-Fc) (Fc fusion)
chain: ARVDQTPQTITKETGESLTINCVLRDSNCTLSRTYWYRKKSGSTNLESISKGGRYVETVNSGSKSFSLRINDLTVEDSGTYRCASKIRYDCQGIIAYDIYGGGTVVTVNSREPKSCDKGLEVLFQ[no letters for human IgG1 Fc and a few adjoining residues]
B18: ShAb12a (ShAb12 VNAR-3c-Fc) (Fc fusion)
chain: ARVDQTPRSVTKETGESLTINCVLRDTNCPLYAAYWYRKSPGSTNEETIWATGRYVQTVNSGLKTFSLRINDLTSEDSGTYRCNGQTWCPATKNNDISGGGTVVTVNSREPKSCDKGLEVLFQ[no letters for human IgG1 Fc and a few adjoining residues]
B19: ShAb13a (ShAb13 VNAR-3c-Fc) (Fc fusion)
chain: ARVDQTPRSVTKETGESLTINCVLRDASYALGSTCWYRKKSGSTNEERISKGGRYVETVNSGSKSFSLRINDLTVEDGGTYRCGVWPGYNWCGSCDYRGDYNFCGDGTAVTVNSREPKSCDKGLEVLFQ[no letters for human IgG1 Fc and a few adjoining residues]
B20: ShAb15a (ShAb15 VNAR-3c-Fc) (Fc fusion)
chain: ARVDQTPRSVTKETGESLTINCVLRDANYALGSTCWYRKKSGSTNGESISKGGRYVETVNSGSKSFSLRINDLTVEDGGTYRCGVGVVFGRCDFCALERKNYAVCGGGTVVTVNSREPKSCDKGLEVLFQ[no letters for human IgG1 Fc and a few adjoining residues]
B21: ShAb16a (ShAb16 VNAR-3c-Fc) (Fc fusion)
chain: ARVDQTPRSVTKETGESLTINCVLRDATYALGNTCWYRKKSGSSTEESISKGGRYVETVNSGSKSFSLRINDLTVEDGGTYRCGVWPGYNWCGSCDYVHDALHVFCGGGTVVTVNSREPKSCDKGLEVLFQ[no letters for human IgG1 Fc and a few adjoining residues]

What was measured:
[1] = biological target: SARS-CoV-2 WA-1 Spike on pseudovirions (SARS-CoV-2); assay: cell-based or functional assay
[2] = biological target: SARS-CoV-2 WA-1 Spike on pseudovirions (SARS-CoV-2); assay: cell-based or functional assay; remark: listed apart in the source
SARS-CoV-2 NTD WA-1 = biological target: T1, SARS-CoV-2 NTD WA-1 (SARS-CoV-2); assay: BLI, ShAb-Fc on AHC probe, NTD analyte
T1 construct: domain: NTD

Row | Binder | pseudovirus neutralization IC50 [1] [mg/L] | pseudovirus neutralization IC50 [2] [mg/L] | pseudovirus neutralization IC80 [2] [mg/L] | Kd (SARS-CoV-2 NTD WA-1) [µM] | koff (SARS-CoV-2 NTD WA-1) [s⁻¹] | kon (SARS-CoV-2 NTD WA-1) [M⁻¹ s⁻¹]
1 | B1 | < 0.02 | < 0.023 | 0.055 |  |  | 
2 | B2 | 0.02 | 0.024 | 0.042 |  |  | 
3 | B3 |  | 3.91 | > 50 | 0.0442 | 0.00139 | 31300
4 | B4 |  | 0.447 | 4.47 |  |  | 
5 | B5 |  | 0.845 | > 5 |  |  | 
6 | B6 |  | 1.59 | > 2 |  |  | 
7 | B7 |  | 0.197 | 1.23 |  |  | 
8 | B8 |  | 0.033 | 0.21 |  |  | 
9 | B9 |  | > 2 | > 2 |  |  | 
10 | B10 |  | > 5 | > 5 |  |  | 
11 | B11 |  | 1.89 | > 50 |  |  | 
12 | B12 |  | 2.35 | 15 | 0.105 | 0.0102 | 97000
13 | B13 |  | 2.07 | > 50 | 0.0828 | 0.0074 | 89400
14 | B14 |  | 3.04 | > 50 |  |  | 
15 | B15 |  | 0.142 |  |  |  | 
16 | B16 |  | 0.116 | 0.551 |  |  | 
17 | B17 |  | 0.91 | 12.7 | 0.0084 | 0.000756 | 90400
18 | B18 |  | 3.21 | 21 | 0.178 | 0.00553 | 31000
19 | B19 |  | 7.02 | > 50 | 0.0557 | 0.00227 | 40700
20 | B20 |  |  |  | 0.0738 | 0.00745 | 101000
21 | B21 |  |  |  | 0.0085 | 0.000713 | 84000

Like-named read-outs stand apart in the source and are kept apart here.
